# About 220 (0.56%) of roughly 39,000 compounds showed activity. The list shows a part of the results.
# Test system: Escherichia coli K-12 BW25113
# Test: relative growth (OD600 normalised to plate interquartile mean) (fraction); higher = less growth inhibition, active = 0.2 or less
# Conditions: 50 µM; LB; incubation time: overnight (16-24 h)
# 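Note: static incubation at 37 °C against the wild-type strain, values averaged over two biological replicates.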
row,Compound,relative growth
1,Cn1cnc(S(=O)(=O)N[C@@H]2CC[C@@H](CC(=O)Nc3ccccc3)O[C@@H]2CO)c1,inactive: 1
2,Cc1ccc(NC(=O)CN)c(F)c1,inactive: 0.997
3,C[C@@H]1CCCCO[C@H](CN(C)C(=O)C2CCCCC2)[C@H](C)CN([C@@H](C)CO)C(=O)c2cc(NC(=O)Nc3ccc4c(c3)OCO4)ccc2O1,inactive: 0.996
4,C[C@H]1CN([C@@H](C)CO)S(=O)(=O)c2ccc(C#CC3(O)CCCC3)cc2O[C@H]1CN(C)C(=O)c1ccncc1,inactive: 1.03
5,CCS(=O)(=O)Nc1ccc2c(c1)C(=O)N(C)C[C@@H](OC)[C@H](C)CN(Cc1nccs1)[C@H](C)CO2,inactive: 1.01
6,O=C(C[C@H]1C[C@H]2c3cc(NS(=O)(=O)c4ccc(F)cc4)ccc3O[C@H]2[C@H](CO)O1)NCc1ccc(Oc2ccccc2)cc1,inactive: 1.01
7,C[C@@H]1CN([C@@H](C)CO)C(=O)c2c(c3ccccc3n2C)-c2ccccc2CO[C@@H]1CN(C)C(=O)Nc1ccccc1C(F)(F)F,inactive: 0.981
8,COCC(=O)N1C[C@H](C)[C@@H](OC)CN(C)C(=O)c2cc(NC(=O)Nc3cccc(F)c3)ccc2OC[C@H]1C,inactive: 0.979
9,CCCNC(=O)N1[C@@H]2c3cccc(=O)n3C[C@H]1[C@H](CO)[C@H]2C(=O)NCC(F)(F)F,inactive: 0.965
10,C[C@@H]1CCCCO[C@H](CN(C)Cc2ccccc2)[C@H](C)CN([C@H](C)CO)C(=O)c2cc(NS(=O)(=O)c3ccc(F)cc3)ccc2O1,inactive: 1
11,COc1cccc(S(=O)(=O)Nc2ccc3c(c2)[C@@H]2C[C@@H](CC(=O)N4CCCCC4)O[C@@H](CO)[C@@H]2O3)c1,inactive: 0.993
12,C[C@H](CO)N1C[C@H](C)[C@@H](CN(C)Cc2ccc3c(c2)OCO3)Oc2cc(C#CCN(C)C)ccc2S1(=O)=O,inactive: 0.887
13,Cc1ccc(S(=O)(=O)N(C)C[C@H]2Oc3ccc(NC(=O)Nc4ccc(C(F)(F)F)cc4)cc3C(=O)N([C@H](C)CO)C[C@@H]2C)cc1,inactive: 0.978
14,O=C(C[C@H]1C[C@H]2c3cc(NC(=O)C4CCOCC4)ccc3O[C@H]2[C@@H](CO)O1)NCc1ccc(Cl)cc1,inactive: 0.967
15,C[C@@H]1CN([C@@H](C)CO)C(=O)c2cc(NC(=O)CCC(F)(F)F)ccc2O[C@@H]1CN(C)S(C)(=O)=O,inactive: 1
16,C[C@H](CO)N1C[C@H](C)[C@H](CN(C)S(=O)(=O)c2ccc(Oc3ccccc3)nc2)OCc2cnnn2CCCC1=O,inactive: 0.972
17,COc1ccc(S(=O)(=O)N(C)C[C@@H]2Oc3ccc(NS(=O)(=O)c4ccc(C)cc4)cc3C(=O)N([C@@H](C)CO)C[C@H]2C)cc1,inactive: 1.03

# From the supplement of paper PMC9446081
